Measurements taken from patent EP4786492A1 (Simcere Zaiming Pharmaceutical Co., Ltd., dated 2026).
Several values for one entry are separate records, joined by “and”; a condition that tells them apart may be missing. Equal values may be shown once.

B1: mab014 scFv-hFc (scFv)
chain: DIQMTQSSSSFSVSLGDRVTITCKASEDIYNRLAWYQQKPGNTPRLLISGATSLETGVPSRFSGSGSGKDFTLSITSLQTEDVATYYCQQYWSLPWTFGGGTKLEIKEVQLHQSGPELVKPGTSVKISCKASGYTFTDYYMNWVKQSHGKSLEWIGDINPNHGDTGYNQKFTGKATLTVDKSSSTAYMELRSLTSEDSAVYYCARNFFYYGTTYGWYFDVWGTGTTVTVSS[human IgG1 Fc cut from this listing]
B2: mab008 scFv-hFc (scFv)
chain: DIVMTQSQKFMSTSVGDRVSITCKASQNVGTAVAWYQQKPGQSPKLLIFSASIRYTGVPDRFTGSGSGTDFTLTISNMQSEDLADYFCQQYSSSPYTFGGGTKLEIKEVQLQQSGPVLVKPGASVKMSCKASGYTFTDYYMNWVKRSHGKSLEWIGIINPYNGGTSYNQKFRGKATLTVDKSSNTAYMELNSLTSEDSAVYYCSRYDYDYDVEGAMDYWGQGTSVTVSS[human IgG1 Fc cut from this listing]
B3: AMG757-4 scFv-hFc (Fc fusion)
scFv: QVQLQESGPGLVKPSETLSLTCTVSGGSISSYYWSWIRQPPGKCLEWIGYVYYSGTTNYNPSLKSRVTISVDTSKNQFSLKLSSVTAADTAVYYCASIAVTGFYFDYWGQGTLVTVSSGGGGSGGGGSGGGGSEIVLTQSPGTLSLSPGERVTLSCRASQRVNNNYLAWYQQRPGQAPRLLIYGASSRATGIPDRFSGSGSGTDFTLTISRLEPEDFAVYYCQQYDRSPLTFGCGTKLEIK[human IgG1 Fc with C220S (EU numbers) cut from this listing]
notes: control antibody; scFv-human IgG1 Fc, variable regions from WO2017021349A1
B4: AMG757-4 scFv-hFc (Fc fusion)
scFv: B3 scFv
notes: VH, VL and human IgG1 Fc linked from N- to C-terminus (scFv-hFc); variable regions from WO2017021349A1; also called control antibody

Legend:
[1] = target: T1, monkey DLL3 on CHO-K1-cyno DLL3 cells (cynomolgus monkey); test: FACS, CHO-K1-cyno DLL3 cells, 0.0064 nM antibody
T1 construct: also called cynomolgus monkey DLL3
T1 chain: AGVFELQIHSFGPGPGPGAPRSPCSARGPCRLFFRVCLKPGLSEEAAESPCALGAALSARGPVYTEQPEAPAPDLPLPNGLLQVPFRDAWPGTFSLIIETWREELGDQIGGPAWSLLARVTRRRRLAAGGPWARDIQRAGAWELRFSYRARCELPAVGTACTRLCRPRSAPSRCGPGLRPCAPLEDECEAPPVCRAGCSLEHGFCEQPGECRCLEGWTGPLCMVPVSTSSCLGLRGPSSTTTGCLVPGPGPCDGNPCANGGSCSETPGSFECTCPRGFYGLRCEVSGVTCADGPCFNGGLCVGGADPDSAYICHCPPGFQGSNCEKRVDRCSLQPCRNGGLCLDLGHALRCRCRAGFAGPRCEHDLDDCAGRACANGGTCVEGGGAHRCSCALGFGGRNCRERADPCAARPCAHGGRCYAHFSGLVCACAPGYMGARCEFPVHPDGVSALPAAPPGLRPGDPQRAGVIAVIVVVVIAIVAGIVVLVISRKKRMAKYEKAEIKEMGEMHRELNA

[2] = target: T2, mouse DLL3 on CHO-K1-mDLL3 cells (mouse, UniProt O88516 33-490); test: FACS, CHO-K1-mDLL3 cells, 0.16 nM antibody
T2 sequence: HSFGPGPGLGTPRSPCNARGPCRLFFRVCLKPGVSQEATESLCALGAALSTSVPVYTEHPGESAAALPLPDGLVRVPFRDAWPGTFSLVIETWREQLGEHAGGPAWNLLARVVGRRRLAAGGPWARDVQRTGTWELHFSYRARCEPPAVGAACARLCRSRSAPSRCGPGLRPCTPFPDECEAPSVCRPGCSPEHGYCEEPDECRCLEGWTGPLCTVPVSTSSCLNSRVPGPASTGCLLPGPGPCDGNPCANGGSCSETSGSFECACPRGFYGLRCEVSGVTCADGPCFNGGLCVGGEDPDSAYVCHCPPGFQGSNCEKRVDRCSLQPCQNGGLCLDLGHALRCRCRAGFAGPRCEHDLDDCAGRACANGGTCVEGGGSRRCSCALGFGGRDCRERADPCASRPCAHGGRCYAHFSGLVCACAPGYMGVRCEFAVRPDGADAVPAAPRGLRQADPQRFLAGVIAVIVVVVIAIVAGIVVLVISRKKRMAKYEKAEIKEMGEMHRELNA

[3] = target: T1, monkey DLL3 on CHO-K1-cyno DLL3 cells; test: FACS, CHO-K1-cyno DLL3 cells, 0.16 nM antibody
[4] = target: T2, mouse DLL3 on CHO-K1-mDLL3 cells; test: FACS, CHO-K1-mDLL3 cells, 4 nM antibody
[5] = target: T1, monkey DLL3 on CHO-K1-cyno DLL3 cells; test: FACS, CHO-K1-cyno DLL3 cells, 4 nM antibody
[6] = target: T1, monkey DLL3 on CHO-K1-cyno DLL3 cells; test: FACS, CHO-K1-cyno DLL3 cells, 0.00128 nM antibody
[7] = target: T2, mouse DLL3 on CHO-K1-mDLL3 cells; test: FACS, CHO-K1-mDLL3 cells, 0.8 nM antibody
[8] = target: T1, monkey DLL3 on CHO-K1-cyno DLL3 cells; test: FACS, CHO-K1-cyno DLL3 cells, 0.032 nM antibody
[9] = target: T2, mouse DLL3 on CHO-K1-mDLL3 cells; test: FACS, CHO-K1-mDLL3 cells, 0.032 nM antibody
[10] = target: T2, mouse DLL3 on CHO-K1-mDLL3 cells; test: FACS, CHO-K1-mDLL3 cells, 0.0064 nM antibody
[11] = target: T2, mouse DLL3 on CHO-K1-mDLL3 cells; test: FACS, CHO-K1-mDLL3 cells, 100 nM antibody
[12] = target: T2, mouse DLL3 on CHO-K1-mDLL3 cells; test: FACS, CHO-K1-mDLL3 cells, 0.00128 nM antibody
[13] = target: T2, mouse DLL3 on CHO-K1-mDLL3 cells; test: FACS, CHO-K1-mDLL3 cells, 20 nM antibody
[14] = target: T1, monkey DLL3 on CHO-K1-cyno DLL3 cells; test: FACS, CHO-K1-cyno DLL3 cells, 100 nM antibody
[15] = target: T1, monkey DLL3 on CHO-K1-cyno DLL3 cells; test: FACS, CHO-K1-cyno DLL3 cells, 0.8 nM antibody
[16] = target: T1, monkey DLL3 on CHO-K1-cyno DLL3 cells; test: FACS, CHO-K1-cyno DLL3 cells, 20 nM antibody
[17] = target: T3, human DLL3 protein (extracellular segment, His tag) (human, UniProt Q9NYJ7 27-492); test: SPR (Biacore 8K), antibody captured on Protein A chip, DLL3 antigen in solution, 1:1 Langmuir fit
T3 construct: also called human DLL3-his protein; DLL3 antigen; not shown: His tag
T3 sequence: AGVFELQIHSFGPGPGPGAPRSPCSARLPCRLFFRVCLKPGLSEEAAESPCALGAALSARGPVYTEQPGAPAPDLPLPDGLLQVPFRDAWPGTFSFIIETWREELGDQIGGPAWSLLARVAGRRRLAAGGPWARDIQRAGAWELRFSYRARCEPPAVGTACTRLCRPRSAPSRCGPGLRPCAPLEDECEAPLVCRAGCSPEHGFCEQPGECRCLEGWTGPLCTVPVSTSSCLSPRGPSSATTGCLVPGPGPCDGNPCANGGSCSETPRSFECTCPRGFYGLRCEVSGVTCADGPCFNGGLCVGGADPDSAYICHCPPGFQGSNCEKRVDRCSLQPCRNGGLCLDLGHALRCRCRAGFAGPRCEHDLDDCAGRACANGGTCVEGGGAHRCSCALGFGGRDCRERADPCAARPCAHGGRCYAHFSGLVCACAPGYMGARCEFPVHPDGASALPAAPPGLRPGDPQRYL

[18] = target: T4, monkey DLL3-his protein (cynomolgus monkey, UniProt Q9NYJ7 27-490 (human entry)); test: ELISA, coated DLL3-his
T4 construct: a bought cynomolgus DLL3-His (Acro DL3-C52H3) is also named; also called monkey DLL3 protein; cynomolgus monkey DLL3-His; not shown: His tag
T4 chain: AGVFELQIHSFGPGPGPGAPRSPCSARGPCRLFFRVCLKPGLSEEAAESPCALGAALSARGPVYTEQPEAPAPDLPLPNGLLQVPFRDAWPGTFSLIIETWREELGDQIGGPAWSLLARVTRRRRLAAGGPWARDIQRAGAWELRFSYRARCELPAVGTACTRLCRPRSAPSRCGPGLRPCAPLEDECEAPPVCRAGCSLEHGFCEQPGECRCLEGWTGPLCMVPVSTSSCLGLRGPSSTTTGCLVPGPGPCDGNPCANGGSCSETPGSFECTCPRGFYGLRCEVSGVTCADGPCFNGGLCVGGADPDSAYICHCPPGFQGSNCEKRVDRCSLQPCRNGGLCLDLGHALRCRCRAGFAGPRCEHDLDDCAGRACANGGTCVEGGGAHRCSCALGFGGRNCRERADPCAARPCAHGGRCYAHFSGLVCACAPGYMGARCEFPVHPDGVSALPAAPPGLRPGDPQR

Row | Binder | MFI [1] [MFI] | MFI [2] [MFI] | MFI [3] [MFI] | MFI [4] [MFI] | MFI [5] [MFI] | MFI [6] [MFI] | MFI [7] [MFI] | MFI [8] [MFI] | MFI [9] [MFI] | MFI [10] [MFI] | MFI [11] [MFI] | MFI [12] [MFI] | MFI [13] [MFI] | MFI [14] [MFI] | MFI [15] [MFI] | MFI [16] [MFI] | Kd [17] | koff [17] | kon [17] | binding result [18]
1 | B1 | 243 | 205 | 1500 | 300 | 27700 | 184 | 260 | 498 | 152 | 117 | 424 | 105 | 354 | 34600 | 9540 | 32200 | – | – | – | –
2 | B2 | 169 | – | 879 | – | 15100 | 113 | – | 309 | – | – | – | – | – | 19600 | 5340 | 20200 | – | – | – | –
3 | B3 | – | – | – | – | – | – | – | – | – | – | – | – | – | – | – | – | 0.0725 nM and 0.0532 nM | 9.35e-05 s⁻¹ and 7.51e-05 s⁻¹ | 1.29e+06 M⁻¹ s⁻¹ and 1.41e+06 M⁻¹ s⁻¹ | –
4 | B4 | – | – | – | – | – | – | – | – | – | – | – | – | – | – | – | – | – | – | – | binds
